# The supplement of paper PMC12067093, “Discovery and optimisation of a covalent ligand for TRIM25 and its application to targeted protein ubiquitination” (Chemical Science, 2025)
# About 21,000 targets were measured; listed, in parts, are those with the largest changes and a random draw of the rest.
# Compound: CC1Cc2ccccc2N1C(=O)C1CCCN(C1)C(=O)CCl (mixture of isomers) [TRIM25 ligand 11 (diastereomer mixture)]
# Assay: probe-labelled cysteine peptide fold change vs DMSO (competition) (log2 fold change); higher = less target engagement (more negative = stronger competition)
# Conditions: THP-1, incubation time: 4 h
# 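Further: competitive chemoproteomic profiling in live THP-1 cells with an iodoacetamide desthiobiotin (IA-DTB) probe, comparing probe-labelled peptide intensities in compound-treated cells against DMSO-treated controls.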
# UniProt Q9NYZ3, sequence (Q9NYZ3 whole entry, looked up): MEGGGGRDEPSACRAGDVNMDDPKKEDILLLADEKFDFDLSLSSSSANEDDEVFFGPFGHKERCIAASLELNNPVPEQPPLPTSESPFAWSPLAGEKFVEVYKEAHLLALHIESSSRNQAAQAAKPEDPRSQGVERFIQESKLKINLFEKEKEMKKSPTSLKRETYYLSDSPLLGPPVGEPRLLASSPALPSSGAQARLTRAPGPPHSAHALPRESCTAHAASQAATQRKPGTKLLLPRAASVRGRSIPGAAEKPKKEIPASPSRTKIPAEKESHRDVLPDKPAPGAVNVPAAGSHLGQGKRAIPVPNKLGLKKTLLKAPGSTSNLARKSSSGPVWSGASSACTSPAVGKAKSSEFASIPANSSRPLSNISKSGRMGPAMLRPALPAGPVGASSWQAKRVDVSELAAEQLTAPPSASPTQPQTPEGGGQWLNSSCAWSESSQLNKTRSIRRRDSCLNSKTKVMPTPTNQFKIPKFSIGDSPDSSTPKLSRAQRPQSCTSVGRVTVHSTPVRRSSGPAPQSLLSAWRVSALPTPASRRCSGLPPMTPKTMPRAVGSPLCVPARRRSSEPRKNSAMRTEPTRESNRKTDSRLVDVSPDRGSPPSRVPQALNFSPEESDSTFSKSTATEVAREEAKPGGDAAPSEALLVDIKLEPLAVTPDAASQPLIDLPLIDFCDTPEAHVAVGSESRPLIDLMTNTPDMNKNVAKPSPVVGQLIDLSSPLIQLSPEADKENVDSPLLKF
# UniProt Q12789, sequence (Q12789 whole entry, looked up): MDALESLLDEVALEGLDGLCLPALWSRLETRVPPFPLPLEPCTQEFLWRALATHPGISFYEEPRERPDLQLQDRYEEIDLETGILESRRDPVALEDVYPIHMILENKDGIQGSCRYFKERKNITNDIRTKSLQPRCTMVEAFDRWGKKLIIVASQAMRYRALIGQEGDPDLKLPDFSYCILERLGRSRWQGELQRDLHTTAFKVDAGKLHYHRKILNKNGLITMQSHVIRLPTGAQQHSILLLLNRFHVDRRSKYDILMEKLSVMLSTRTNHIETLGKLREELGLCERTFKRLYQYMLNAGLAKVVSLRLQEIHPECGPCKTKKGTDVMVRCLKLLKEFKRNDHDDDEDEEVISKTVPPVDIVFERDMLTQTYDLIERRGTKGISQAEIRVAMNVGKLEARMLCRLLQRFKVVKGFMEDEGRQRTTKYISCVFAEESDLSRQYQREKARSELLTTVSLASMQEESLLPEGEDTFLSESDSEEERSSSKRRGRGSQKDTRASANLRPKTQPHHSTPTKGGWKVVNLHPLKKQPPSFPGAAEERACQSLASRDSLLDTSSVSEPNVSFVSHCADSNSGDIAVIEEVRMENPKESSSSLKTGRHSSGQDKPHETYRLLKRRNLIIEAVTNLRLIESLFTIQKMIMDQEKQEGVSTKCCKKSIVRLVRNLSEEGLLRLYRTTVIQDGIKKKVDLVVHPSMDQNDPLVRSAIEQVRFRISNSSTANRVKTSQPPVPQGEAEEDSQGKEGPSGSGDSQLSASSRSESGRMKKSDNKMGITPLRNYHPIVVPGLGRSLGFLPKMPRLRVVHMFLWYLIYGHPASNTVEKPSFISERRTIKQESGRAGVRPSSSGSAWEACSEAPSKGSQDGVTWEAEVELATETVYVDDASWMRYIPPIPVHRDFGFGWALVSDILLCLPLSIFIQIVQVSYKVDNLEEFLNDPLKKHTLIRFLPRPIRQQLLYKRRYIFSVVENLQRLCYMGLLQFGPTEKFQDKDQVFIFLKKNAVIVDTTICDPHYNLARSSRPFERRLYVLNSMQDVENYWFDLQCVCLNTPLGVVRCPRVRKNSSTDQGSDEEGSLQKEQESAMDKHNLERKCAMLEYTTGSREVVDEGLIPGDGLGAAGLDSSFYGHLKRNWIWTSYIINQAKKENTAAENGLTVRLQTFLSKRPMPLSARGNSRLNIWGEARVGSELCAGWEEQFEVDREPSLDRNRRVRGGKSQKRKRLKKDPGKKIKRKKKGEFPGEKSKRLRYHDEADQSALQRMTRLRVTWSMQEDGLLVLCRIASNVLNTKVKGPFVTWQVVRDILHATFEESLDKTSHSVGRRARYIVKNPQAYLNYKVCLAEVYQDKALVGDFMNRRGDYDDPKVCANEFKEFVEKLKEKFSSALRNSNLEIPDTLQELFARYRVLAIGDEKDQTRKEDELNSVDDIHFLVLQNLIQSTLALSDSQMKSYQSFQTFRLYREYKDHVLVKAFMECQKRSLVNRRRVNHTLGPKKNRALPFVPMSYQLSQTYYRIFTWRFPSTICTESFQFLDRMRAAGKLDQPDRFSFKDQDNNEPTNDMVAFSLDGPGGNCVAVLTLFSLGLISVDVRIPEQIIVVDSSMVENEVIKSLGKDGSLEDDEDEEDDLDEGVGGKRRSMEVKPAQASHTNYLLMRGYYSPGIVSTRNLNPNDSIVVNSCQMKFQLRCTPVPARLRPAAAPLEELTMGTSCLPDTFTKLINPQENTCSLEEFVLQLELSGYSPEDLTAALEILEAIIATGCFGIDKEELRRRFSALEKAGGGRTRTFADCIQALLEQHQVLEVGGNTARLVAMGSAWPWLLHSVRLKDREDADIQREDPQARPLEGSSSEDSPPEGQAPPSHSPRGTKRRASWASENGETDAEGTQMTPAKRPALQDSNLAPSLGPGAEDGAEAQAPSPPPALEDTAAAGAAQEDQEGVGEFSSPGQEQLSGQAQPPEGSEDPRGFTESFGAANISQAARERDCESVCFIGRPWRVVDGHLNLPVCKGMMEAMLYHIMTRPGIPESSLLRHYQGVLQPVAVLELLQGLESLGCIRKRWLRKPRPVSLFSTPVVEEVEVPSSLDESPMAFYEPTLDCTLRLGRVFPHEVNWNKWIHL
# UniProt Q9H583, sequence (Q9H583 whole entry, looked up): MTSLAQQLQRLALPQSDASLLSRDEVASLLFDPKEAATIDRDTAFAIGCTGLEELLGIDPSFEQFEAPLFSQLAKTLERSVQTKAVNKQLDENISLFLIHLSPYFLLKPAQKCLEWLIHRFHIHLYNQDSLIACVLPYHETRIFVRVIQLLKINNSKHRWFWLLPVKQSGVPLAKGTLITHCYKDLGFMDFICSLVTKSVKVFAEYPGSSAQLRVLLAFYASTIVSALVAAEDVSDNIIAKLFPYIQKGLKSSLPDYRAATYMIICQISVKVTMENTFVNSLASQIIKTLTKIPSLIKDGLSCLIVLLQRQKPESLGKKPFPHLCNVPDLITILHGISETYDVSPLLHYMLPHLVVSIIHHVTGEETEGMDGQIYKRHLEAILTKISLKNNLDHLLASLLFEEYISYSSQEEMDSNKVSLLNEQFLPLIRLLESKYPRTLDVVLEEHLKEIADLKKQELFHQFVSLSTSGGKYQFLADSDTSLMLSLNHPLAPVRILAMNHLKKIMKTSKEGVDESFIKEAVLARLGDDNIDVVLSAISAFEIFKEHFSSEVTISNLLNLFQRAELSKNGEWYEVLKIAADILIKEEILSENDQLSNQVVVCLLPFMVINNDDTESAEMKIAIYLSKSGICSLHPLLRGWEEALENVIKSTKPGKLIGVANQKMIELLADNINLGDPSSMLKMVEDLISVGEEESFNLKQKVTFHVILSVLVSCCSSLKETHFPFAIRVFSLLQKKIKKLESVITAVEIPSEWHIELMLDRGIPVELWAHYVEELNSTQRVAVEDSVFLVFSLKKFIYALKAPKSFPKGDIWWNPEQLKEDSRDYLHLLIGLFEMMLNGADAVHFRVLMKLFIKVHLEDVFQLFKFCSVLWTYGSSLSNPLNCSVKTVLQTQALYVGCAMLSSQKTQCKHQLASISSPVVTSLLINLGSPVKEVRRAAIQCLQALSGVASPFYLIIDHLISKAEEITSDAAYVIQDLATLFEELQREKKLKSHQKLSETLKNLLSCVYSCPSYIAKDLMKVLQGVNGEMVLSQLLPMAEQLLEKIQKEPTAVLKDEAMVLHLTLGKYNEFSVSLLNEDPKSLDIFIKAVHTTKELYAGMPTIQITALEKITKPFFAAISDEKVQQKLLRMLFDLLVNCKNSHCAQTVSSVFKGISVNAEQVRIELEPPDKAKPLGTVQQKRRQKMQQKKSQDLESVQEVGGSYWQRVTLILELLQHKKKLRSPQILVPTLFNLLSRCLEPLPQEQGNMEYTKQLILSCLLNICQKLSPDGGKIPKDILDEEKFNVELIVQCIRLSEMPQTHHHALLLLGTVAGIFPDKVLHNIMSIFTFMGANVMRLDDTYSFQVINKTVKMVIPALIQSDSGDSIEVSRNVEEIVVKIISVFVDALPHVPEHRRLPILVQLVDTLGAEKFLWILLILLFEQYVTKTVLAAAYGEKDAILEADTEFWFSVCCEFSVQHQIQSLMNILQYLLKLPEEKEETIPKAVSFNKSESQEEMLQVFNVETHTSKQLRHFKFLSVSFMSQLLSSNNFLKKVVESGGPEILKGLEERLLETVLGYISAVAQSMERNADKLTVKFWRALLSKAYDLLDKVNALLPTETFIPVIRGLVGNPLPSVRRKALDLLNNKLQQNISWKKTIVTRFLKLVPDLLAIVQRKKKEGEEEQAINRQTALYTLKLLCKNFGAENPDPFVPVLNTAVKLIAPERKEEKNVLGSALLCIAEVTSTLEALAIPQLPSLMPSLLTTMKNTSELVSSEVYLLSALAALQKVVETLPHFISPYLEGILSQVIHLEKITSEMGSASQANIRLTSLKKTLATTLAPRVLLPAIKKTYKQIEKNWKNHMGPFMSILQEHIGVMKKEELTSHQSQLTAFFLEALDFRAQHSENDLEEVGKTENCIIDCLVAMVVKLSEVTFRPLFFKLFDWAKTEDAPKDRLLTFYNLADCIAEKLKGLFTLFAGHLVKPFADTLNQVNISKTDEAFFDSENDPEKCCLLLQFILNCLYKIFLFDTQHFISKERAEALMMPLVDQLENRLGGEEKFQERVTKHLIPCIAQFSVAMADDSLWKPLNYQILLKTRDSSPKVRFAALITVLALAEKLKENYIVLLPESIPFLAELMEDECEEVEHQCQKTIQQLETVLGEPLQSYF
# UniProt Q9Y4H4, sequence (Q9Y4H4 whole entry): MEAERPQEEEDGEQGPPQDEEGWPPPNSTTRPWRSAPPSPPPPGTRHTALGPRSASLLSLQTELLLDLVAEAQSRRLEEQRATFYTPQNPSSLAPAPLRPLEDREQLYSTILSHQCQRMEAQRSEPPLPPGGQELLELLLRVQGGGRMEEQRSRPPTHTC
Target,probe-labelled cysteine peptide fold change (10 µM),probe-labelled cysteine peptide fold change (50 µM)
HLA-DRA_P01903_188_FHYLPFLPSTEDVYDCR,0.221,0.324
GNPAT_O15228_478_VDSGDSEVVDGLMLQHITLLMCSAYR (UniProt O15228),0.238,0.274
GPC3_P51654_72_GPTCCSR (UniProt P51654),-0.00502,0.159
GPSM3_Q9Y4H4_116_ATFYTPQNPSSLAPAPLRPLEDREQLYSTILSHQCQR (UniProt Q9Y4H4),-0.1,-0.12
GSTK1_Q9Y2Q3_176_ETTEAACR (UniProt Q9Y2Q3),-0.0478,-0.177
HSPA9_P38646_608_VEAVNMAEGIIHDTETKMEEFKDQLPADECNK (UniProt P38646),-1.22,-0.701
HSD17B11_Q8NBQ5_94_VHTFVVDCSNR (UniProt Q8NBQ5),0.0849,0.11
GLCCI1_Q86VQ1_445_QPISAPLFSCPDK (UniProt Q86VQ1),-0.198,-0.217
HDAC1_Q13547_12_VCYYYDGDVGNYYYGQGHPMK (UniProt Q13547),0.0854,0.0775
GLG1_Q92896_385_CNVENLPR (UniProt Q92896),0.0203,0.0958
GRIPAP1_Q4V328_581_DQLEQAQEERDCHLK (UniProt Q4V328),-0.117,-0.0237
HPF1_Q9NWY4_60_FCEELDPEK (UniProt Q9NWY4),0.0355,0.151
GSDMD_P57764_56_CVNLSIKDILEPDAAEPDVQR (UniProt P57764),-0.918,-0.403
HECTD1_Q9ULT8_2086_QLYFTCTAFGASR (UniProt Q9ULT8),0.0366,0.19
HINT3_Q9NQE9_96_HIGNCR (UniProt Q9NQE9),0.0524,0.0325
GCC2_Q8IWJ2_399_EEQGCVIEK (UniProt Q8IWJ2),-0.21,-0.0979
HECTD4_Q9Y4D8_2036_DGAWTNPVGTCLFHNNGR (UniProt Q9Y4D8),0.11,0.235
HEATR1_Q9H583_1942_LLTFYNLADCIAEK (UniProt Q9H583),-0.106,0.2
HSPA4L_O95757_38_CTPACISLGSR (UniProt O95757),0.129,0.177

Target,probe-labelled cysteine peptide fold change (10 µM),probe-labelled cysteine peptide fold change (50 µM)
GSN_P06396_215_ATEVPVSWESFNNGDCFILDLGNNIHQWCGSNSNRYER (UniProt P06396),-0.0631,0.235
GNL3_Q9BVP2_251_LLGGFQETCSK (UniProt Q9BVP2),0.0408,-0.0829
HSD17B7_P56937_32_LLAEDDELHLCLACR (UniProt P56937),-0.00354,0.135
GLOD4_Q9HC38_197_ALLGYADNQCK (UniProt Q9HC38),0.0141,0.165
GTF3C1_Q12789_1704_LRPAAAPLEELTMGTSCLPDTFTK (UniProt Q12789),-0.109,-0.35
HNRNPU_Q00839_450+453_PLFPHVLCHNCAVEFNFGQK (UniProt Q00839),0.0361,0.157
GPATCH1_Q9BRR8_485_AQLSPAAAAGHCSWNMALGGGTATLK (UniProt Q9BRR8),0.0037,-0.635
HNRNPL_P14866_260_ASLNGADIYSGCCTLK (UniProt P14866),0.145,0.197
GTSE1_Q9NYZ3_478_AQRPQSCTSVGR (UniProt Q9NYZ3),0.0636,0.139
HASPIN_Q8TF76_219_ASLPCSQEEATGGAK (UniProt Q8TF76),-0.0801,-0.231
GANAB_Q14697_502_DGSDYEGWCWPGSAGYPDFTNPTMR (UniProt Q14697),-0.0552,-0.169
HMOX2_P30519_282_GALEGSSCPFR (UniProt P30519),-0.251,-0.941
GOLGA4_Q13439_1085_ILLFGCEK (UniProt Q13439),-0.177,–
HTATIP2_Q9BUP3_90_NVNQEVVDFEKLDDYASAFQGHDVGFCCLGTTR (UniProt Q9BUP3),-0.181,0.13
GIT2_Q14161_34+35_GTFLCDECCSVHR (UniProt Q14161),-0.155,-0.565
HSD17B11_Q8NBQ5_215+217_TTCLCPNFVNTGFIK (UniProt Q8NBQ5),0.0555,0.0766
HNRNPC_P07910_46_IVGCSVHK (UniProt P07910),0.221,0.132
GPX1_P07203_78_GLVVLGFPCNQFGHQENAKNEEILNSLK (UniProt P07203),-0.92,-0.442
GOLGB1_Q14789_2664_IAELEEELVCVQK (UniProt Q14789),0.0828,-0.0438
